In PubChem BioAssay AID504333 (National Center for Advancing Translational Sciences (NCATS), 2011):
In all, about 360,000 compounds went through this assay and about 16,000 (4.4%) were called active. This list was built around the results that the source calls inconclusive (neither active nor inactive); the mix of calls is not that of the screen. Calls come from the whole dose curve; as a rule, active = well fitted inhibition curve with a large enough effect; inconclusive = small, poorly fitted or top-dose-only effect; inactive = no such curve, though single readings can be large or run the other way. Where the call is inconclusive, the potency comes from a doubtful curve fit. Where a SMILES comes first, the peptide text is derived from it. The star is where a group is joined. Bz = O=C(c1ccccc1)*

molecular target: Bromodomain adjacent to zinc finger domain protein 2B (Homo sapiens) (UniProt Q9UIF8); test: qHTS Assay for Inhibitors of BAZ2B; details: AlphaScreen BAZ2B-H3K14Ac peptide displacement; activity change, negative = inhibition: at 114 µM (top of the series); note: nearly all actives have a fitted effect of over 60% in size
Chain of UniProt Q9UIF8 (Q9UIF8 whole entry, looked up, the tested form may be a part): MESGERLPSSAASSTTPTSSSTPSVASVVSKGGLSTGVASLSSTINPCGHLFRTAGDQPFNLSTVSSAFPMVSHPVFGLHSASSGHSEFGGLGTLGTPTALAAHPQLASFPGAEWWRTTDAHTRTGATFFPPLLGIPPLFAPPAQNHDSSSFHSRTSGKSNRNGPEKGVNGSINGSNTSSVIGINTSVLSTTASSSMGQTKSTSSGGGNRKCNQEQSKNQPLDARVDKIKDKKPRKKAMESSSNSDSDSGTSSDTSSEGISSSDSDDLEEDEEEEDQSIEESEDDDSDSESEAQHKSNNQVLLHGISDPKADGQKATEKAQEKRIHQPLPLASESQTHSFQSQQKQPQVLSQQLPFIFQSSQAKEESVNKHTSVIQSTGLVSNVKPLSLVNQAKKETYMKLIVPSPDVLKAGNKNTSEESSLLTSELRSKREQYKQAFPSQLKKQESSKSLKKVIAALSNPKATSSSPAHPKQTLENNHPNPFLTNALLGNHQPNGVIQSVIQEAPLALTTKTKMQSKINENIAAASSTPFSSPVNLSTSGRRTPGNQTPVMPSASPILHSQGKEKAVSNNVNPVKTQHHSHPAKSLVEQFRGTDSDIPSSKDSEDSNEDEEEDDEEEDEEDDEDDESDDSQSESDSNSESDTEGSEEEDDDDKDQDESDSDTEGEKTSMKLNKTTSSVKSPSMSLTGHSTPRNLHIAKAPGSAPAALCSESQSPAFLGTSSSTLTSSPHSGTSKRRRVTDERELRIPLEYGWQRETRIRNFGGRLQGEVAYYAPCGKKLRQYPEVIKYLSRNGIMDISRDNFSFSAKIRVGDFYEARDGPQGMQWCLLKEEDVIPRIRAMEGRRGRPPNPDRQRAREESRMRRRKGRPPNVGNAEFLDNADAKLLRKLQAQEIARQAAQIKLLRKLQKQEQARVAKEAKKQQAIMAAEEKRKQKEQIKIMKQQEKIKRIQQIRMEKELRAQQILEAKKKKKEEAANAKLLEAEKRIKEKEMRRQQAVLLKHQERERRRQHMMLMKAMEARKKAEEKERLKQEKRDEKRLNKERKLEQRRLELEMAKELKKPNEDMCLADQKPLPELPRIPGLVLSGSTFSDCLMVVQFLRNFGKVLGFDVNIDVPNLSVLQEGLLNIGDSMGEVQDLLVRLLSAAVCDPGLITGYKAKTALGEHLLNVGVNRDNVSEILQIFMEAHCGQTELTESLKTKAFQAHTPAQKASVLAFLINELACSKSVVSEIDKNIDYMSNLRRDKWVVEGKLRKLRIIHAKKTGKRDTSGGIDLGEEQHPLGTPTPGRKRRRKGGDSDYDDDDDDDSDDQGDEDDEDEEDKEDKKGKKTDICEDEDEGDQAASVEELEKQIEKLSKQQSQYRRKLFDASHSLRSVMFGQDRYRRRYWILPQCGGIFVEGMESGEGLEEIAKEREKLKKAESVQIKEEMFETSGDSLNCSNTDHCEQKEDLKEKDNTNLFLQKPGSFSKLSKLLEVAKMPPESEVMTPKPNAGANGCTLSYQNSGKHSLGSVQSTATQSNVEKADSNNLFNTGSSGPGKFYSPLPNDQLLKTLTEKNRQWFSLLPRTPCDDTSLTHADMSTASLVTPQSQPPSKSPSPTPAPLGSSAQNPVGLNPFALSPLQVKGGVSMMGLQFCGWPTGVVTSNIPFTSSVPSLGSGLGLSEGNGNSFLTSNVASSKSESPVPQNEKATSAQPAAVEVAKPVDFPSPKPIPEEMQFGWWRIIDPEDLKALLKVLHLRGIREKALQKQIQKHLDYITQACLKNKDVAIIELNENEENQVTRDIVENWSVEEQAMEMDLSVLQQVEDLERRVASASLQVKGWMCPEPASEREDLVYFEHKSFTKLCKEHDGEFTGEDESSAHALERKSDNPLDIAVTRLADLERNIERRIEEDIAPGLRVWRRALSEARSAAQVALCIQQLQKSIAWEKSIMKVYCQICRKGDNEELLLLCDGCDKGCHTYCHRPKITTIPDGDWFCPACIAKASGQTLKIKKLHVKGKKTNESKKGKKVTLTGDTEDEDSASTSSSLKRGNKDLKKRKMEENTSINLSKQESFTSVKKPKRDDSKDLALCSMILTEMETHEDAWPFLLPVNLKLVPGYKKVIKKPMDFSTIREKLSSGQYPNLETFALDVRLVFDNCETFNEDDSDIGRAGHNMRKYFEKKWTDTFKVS
Outline: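 Compounds, titrated to a top concentration of 110 uM, were incubated 30 min at room temperature with preformed BAZ2B/acetyl-K14 H3 peptide complex (50 nM each). Proximity signal was measured by AlphaScreen after 20 min with beads.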
% is set by controls: 0 for no effect and ±100 for the full control effect; potency is the fitted concentration of half-maximal effect; tags give direction and shape of the fitted curve.

Compound	Potency	activity change, negative = inhibition
O=[N+]([O-])c1ccc(Cc2nnc(-c3ccc(F)cc3)o2)cc1	inconclusive: 79.4 µM [inhibitor, single point]	–
COc1ccc(/C(O)=C/C(=O)C(=O)NNC(=O)c2ccccc2)cc1	inconclusive: 70.8 µM [inhibitor, single point]	–
CCc1nnc(SCc2nc(-c3ccccc3)oc2C)c2cc3sccc3n12	–	inactive: -23.9%
COc1ccc(CN(C)CC2CCCN(CCc3ccc(Cl)cc3)C2)cc1OC (stereo not drawn)	–	inactive: 0.484%
CCn1c(SCC(=O)Nc2ccc(N(C)C)cc2)nnc1-c1cccc(C)c1	inconclusive: 50.1 µM [inhibitor, partial curve]	–
OC(CNCC#Cc1ccccc1)c1ccccc1 (stereo not drawn)	–	inactive: -25.5%
N#C/C(=N\Nc1cccc([N+](=O)[O-])c1)C(=O)c1ccc(Br)cc1	active: 39.8 µM	–
S=c1nc(-c2sccc2OCc2ccc(Cl)cc2Cl)[nH][nH]1	inconclusive: 44.7 µM [inhibitor, partial curve]	–
CC(=O)c1ccc(NC(=O)CSc2ccc3nc(-c4ccccc4)cn3n2)cc1	–	inactive: -2.9%
COc1ccc(NC(=O)c2cc3c(=O)n(Cc4ccco4)ccc3nc2C)c(OC)c1	–	inactive: -31.6%
CCNc1nc(CC)nc2c1oc1ccccc12	inconclusive: 89.1 µM [inhibitor, single point]	–
COc1ccc(C[C@H]2CN3C(=NC[C@H]3Cc3ccccc3)N2CCNC(=O)c2ccc(C)c(Br)c2)cc1	–	inactive: -28.4%
Cc1nc(-c2ccccc2)sc1C1(C)CC(c2ccc([N+](=O)[O-])cc2)=NO1 (stereo not drawn)	inconclusive: 15.8 µM [inhibitor, full curve]	–
O=C(/C=C/c1ccc(Br)cc1)NC(=S)N1CCOCC1	–	inactive: -31.7%
CN(C)c1ccc(CNC(=O)C2CCN(c3nc4ccccc4[nH]3)CC2)cc1	inconclusive: 79.4 µM [inhibitor, partial curve]	–
COc1ccccc1/C=C/C(=O)NCC(=O)N/N=C(/C)c1ccc(Cl)cc1	–	inactive: -34.2%
COc1cccc(NC(=O)COC(=O)c2cc(S(=O)(=O)N3CCOCC3)ccc2C)c1	inconclusive: 5.62 µM [inhibitor, full curve]	–
COc1ccc2[nH]c(C)c(-c3csc(N)n3)c2c1	inconclusive: 56.2 µM [inhibitor, partial curve]	–
CCCCN1/C(=C/c2ccc3ccccc3[n+]2CC)Sc2ccccc21	inconclusive: 50.1 µM [inhibitor, partial curve]	–
COC(=O)c1cc(S(=O)(=O)N2CCN(c3ccc([N+](=O)[O-])cc3)CC2)c[nH]1	inconclusive: 79.4 µM [inhibitor, partial curve]	–
c1ccc2c(c1)CCOC2CNCCCN1CCCCC1 (stereo not drawn)	–	inactive: -0.512%
CN(C)CCCN(C(=O)C1=COCCO1)c1nc2ccc(Br)cc2s1	–	inactive: -18.9%
Cc1ccc(C)c(NC(=O)CN2CCSc3ccc(S(=O)(=O)N4CCCC4)cc32)c1	–	inactive: -16.4%
CCCCc1cc(=O)oc2c(C)c(OCC(=O)NCc3ccccn3)ccc12	–	inactive: -25.7%
NC(=O)c1nn(-c2ccccc2)nc1N	inconclusive: 3.55 µM [inhibitor, full curve, poor fit]	–

Compound	Potency	activity change, negative = inhibition
CC(C)C(O)(C#CCN1CCCC1)c1ccccc1 (stereo not drawn)	inconclusive: 89.1 µM [inhibitor, single point]	–
Cc1ccccc1S(=O)(=O)Cc1ccc(C(=O)N2CCN(c3cccc(Cl)c3)CC2)o1	inconclusive: 20 µM [inhibitor, full curve]	–
Cc1nc(/C(N)=N/OC(=O)c2cccc(Cl)c2)c(C(F)(F)F)o1	inconclusive: 0.794 µM [inhibitor, full curve, poor fit]	–
O=C(NCCCn1ccnc1)c1ccc(Br)o1	inconclusive: 89.1 µM [inhibitor, single point]	–
Cc1ccnc(NC(=O)c2ccc(Cl)c(NC(=O)c3ccccc3C)c2)c1	inconclusive: 0.891 µM [inhibitor, full curve, poor fit]	–
Cc1ccccc1C(=O)Nc1cccc(OCc2cc(=O)n3c(C)csc3n2)c1	inconclusive: 25.1 µM [inhibitor, single point]	–
Cc1cccc(NC(=O)c2cc(S(=O)(=O)NCCc3ccccc3)ccc2F)c1C	–	inactive: -0.883%
CCCC(=O)NCCc1nc2cc([N+](=O)[O-])ccc2n1C	–	inactive: 12.1%
O=[N+]([O-])c1ccc(/C=N/n2c(COc3ccccc3)n[nH]c2=S)cc1	inconclusive: 22.4 µM [inhibitor, full curve]	–
COc1ccccc1OCC(=O)Nc1cc(NC(=O)COc2ccccc2OC)cc(C(=O)O)c1	–	inactive: -10.4%
OCCC1CN(Cc2nc(-c3ccccc3)cs2)CCN1Cc1ccc(F)cc1 (stereo not drawn)	inconclusive: 79.4 µM [inhibitor, single point]	–
O=C1Nc2ccccc2Oc2cc(Oc3ccccc3)ccc21	active: 44.7 µM	–
O=C(CSc1nc2ccccc2c(=O)n1Cc1ccco1)N1CCN(c2ccccc2)CC1	inconclusive: 70.8 µM [inhibitor, single point]	–
CN=c1scc(-c2ccc([N+](=O)[O-])cc2)n1/N=C/c1ccco1	inconclusive: 7.94 µM [inhibitor, full curve]	–
CC(=O)Nc1ccc(S(=O)(=O)N2CCN(C(C)CCc3ccccc3)CC2)cc1 (stereo not drawn)	active: 50.1 µM	–
O=[N+]([O-])c1cc(S(=O)(=O)Nc2ccccc2)ccc1N1CCN(c2ccccc2)CC1	active: 39.8 µM	–
COc1cc(/C=C(\C#N)C(=O)Nc2cccc3ncccc23)ccc1O	–	inactive: -7.88%
CCn1c(SCC(=O)c2ccc(O)c(O)c2)nnc1-c1ccccc1OC	active: 79.4 µM	–
N#CC1=C(N)Oc2c(oc(CO)cc2=O)C1c1cccs1 (stereo not drawn)	–	inactive: -0.766%
CC(=O)Nc1ccc(N2N=C(C)C(N=Nc3ccccc3)C2=O)cc1 (stereo not drawn)	inconclusive: 70.8 µM [inhibitor, single point]	–
O=C(O)c1cc(S(=O)(=O)Nc2ccc(OCc3ccccc3)cc2)ccc1Br	inconclusive: 70.8 µM [inhibitor, single point]	–
Cc1cc(NC(=O)CCN2CCN(C/C=C/c3ccccc3)CC2)ccc1Br	inconclusive: 70.8 µM [inhibitor, single point]	–
O=C(NC(Cc1ccccc1)C(=O)NC(Cc1ccccc1)C(=O)O)c1ccccc1 (stereo not drawn) (Bz-Phe-Phe-OH; configuration not given here)	inconclusive: 89.1 µM [inhibitor, single point]	–
COc1ccccc1C(CC(=O)O)NS(=O)(=O)c1ccc2c(c1)N(C(C)=O)CC(C)O2 (stereo not drawn)	–	inactive: -2.67%
CN(C)CCCNCC(=O)NN(c1ccccc1)c1ccccc1	active: 31.6 µM	–

Compound	Potency	activity change, negative = inhibition
COc1ccc(CNc2nc(-c3ccco3)nn2S(=O)(=O)c2ccc(Cl)cc2)cc1OC	inconclusive: 31.6 µM [inhibitor, partial curve]	–
O=C(CSc1cn(CC(=O)N2CCCC2)c2ccccc12)Nc1ccc(Cl)cc1	–	inactive: -11.9%
Cc1cc(CNC(=O)c2cccc(OC3CCN(S(=O)(=O)N(C)C)CC3)c2)on1	–	inactive: -13.1%
O=C(Nc1ccc(Cl)cc1)Nc1ccccc1NS(=O)(=O)c1cccs1	inconclusive: 79.4 µM [inhibitor, single point]	–
CC(C)(C)c1ccc(-c2nc(C#N)c(NCCCn3ccnc3)o2)cc1	active: 35.5 µM	–
CCC(CNc1cc(OC)cc2cccnc12)NC1CCCCC1 (stereo not drawn)	inconclusive: 50.1 µM [inhibitor, partial curve]	–
C/C(=N/NC(=O)CNC(=O)c1ccccn1)c1cccc([N+](=O)[O-])c1	inconclusive: 70.8 µM [inhibitor, single point]	–
COc1ccc(CN2CN(S(=O)(=O)c3ccccc3)c3nc4ccccc4nc32)cc1	–	inactive: -38.2%
Cc1nc2nc(-c3ccccc3)cc(=O)n2[nH]1	inconclusive: 89.1 µM [inhibitor, single point]	–
CCc1ccc(NC(=O)c2cnn(-c3ccccc3)c2-n2cccc2)cc1	inconclusive: 12.6 µM [inhibitor, full curve, poor fit]	–
COc1ccc(OC)c2sc(NC(=O)C(C)C)nc12	–	inactive: -8.57%
O=C(CNC(=O)c1ccco1)OCC(=O)c1ccccc1	inconclusive: 89.1 µM [inhibitor, single point]	–
COc1ccc(OCCCc2c(C)n[nH]c2C)cc1	inconclusive: 100 µM [inhibitor, single point]	–
CCOC(=O)C1CCN(c2ncnc3c2nc2n3CCCCC2)CC1	–	inactive: -4.48%
Cc1cccc(C(=O)NCC(c2ccco2)S(=O)(=O)c2cccs2)c1 (stereo not drawn)	–	inactive: -7%
COc1ccc(-c2sc3ccc(N4CCOCC4)cc3c2-c2ccc(OC)c(F)c2)cc1	inconclusive: 7.94 µM [inhibitor, full curve]	–
O=C(Nc1cccc(S(=O)(=O)Nc2ccccc2F)c1)c1ccc2ccccc2n1	inconclusive: 50.1 µM [inhibitor, partial curve]	–
O=C(Oc1coc(CSc2nnc(NC(=O)C3CC3)s2)cc1=O)c1ccccc1	inconclusive: 89.1 µM [inhibitor, single point]	–
Cc1cccc2sc(NS(C)(=O)=O)nc12	inconclusive: 89.1 µM [inhibitor, single point]	–
Cc1ccccc1S(=O)(=O)NCc1cccnc1	–	inactive: 1.2%
CC1=NN(Cc2ccccc2)C(=O)/C1=C/c1ccc(N(C)C)cc1	active: 2 µM	–
O=C(N/N=C/c1cc([N+](=O)[O-])ccc1O)NC12CC3CC(CC(C3)C1)C2	inconclusive: 89.1 µM [inhibitor, single point]	–
O=C(O)c1cc(O)c2c(c1)[C@H]([C@H]1c3cc(C(=O)O)cc(O)c3C(=O)c3c(O[C@@H]4O[C@H](CO)[C@@H](O)[C@H](O)[C@H]4O)cccc31)c1cccc(OC3O[C@H](CO)[C@@H](O)[C@H](O)[C@H]3O)c1C2=O (stereo partly drawn)	active: 0.794 µM	–
